Assay results as given in US20210138025A1, “CATIONIC PEPTIDES WITH IMMUNOMODULATORY AND/OR ANTI-BIOFILM ACTIVITIES” (priority 2018, published 2021).
Part of at least one peptide drawing is inferred or uncertain, most often the ends. Some compounds share one wording; it may come from a single statement. Some results were stated once for a whole list of compounds, not compound by compound. No end group written: not given here.

Legend:
S. aureus (MRSA SAP0017) = format: cell-based, Staphylococcus aureus; settings: SPOT synthesized peptide, ~12.5 μM, clinical MRSA strain, crystal violet assay
Protocol: Methods of assessment of anti-biofilm activity: MRSA S. aureus strain SAP0017 biofilm formation was initially analyzed using a static abiotic solid surface assay as described elsewhere (de la Fuente-Nunez et al., 2012) and shown graphically in FIG. 2. Dilutions (1/100) of overnight cultures were incubated in BM2 biofilm-adjusted medium [62 mM potassium phosphate buffer (pH 7), 7 mM (NH4)2SO4, 2 mM MgSO4, 10 μM FeSO4, 0.4% (wt/vol) glucose, 0.5% (wt/vol) Casamino Acids], or a nutrient rich medium such as Tryptic soy broth supplemented with 1% glucose, in polypropylene microtiter plates (Falcon, United States) in the absence (control) or presence of peptide. Peptide was added at time zero (prior to adding the diluted, overnight cultures) in varying concentrations, and the amount biofilm formation was recorded after 22-46 h incubation for most bacteria. To quantify biofilm growth, planktonic cells were removed and biofilm cells adhering to the side of the wells were stained with crystal violet, and absorbance at 595 nm was measured using a microtiter plate reader (Bio-Tek Instruments Inc., United States).

MCP-1 = MCP-1 chemokine induction in human PBMCs, ELISA (Tables 6, 7; FIGS. 6-9, 13); format: cell-based
Protocol: Venous blood (20 ml) from healthy volunteers was collected in Vacutainer® collection tubes containing sodium heparin as an anticoagulant (Becton Dickinson, Mississauga, ON) in accordance with UBC ethical approval and guidelines. Blood was diluted 1:1 with complete RPMI 1640 medium and separated by centrifugation over a Ficoll-Paque® Plus (Amersham Biosciences, Piscataway, N.J., USA) density gradient. White blood cells were isolated from the buffy coat, washed twice in PBS and then resuspended in RPMI 1640 complete medium (containing 10% fetal bovine serum), and the number of peripheral blood mononuclear cells (PBMC) was determined by Trypan blue exclusion. PBMCs (5×10^5) were seeded into 12-well tissue culture dishes (Falcon; Becton Dickinson) at 0.75-1×10^6 cells/ml at 37° C. in 5% CO2. The above conditions were chosen to mimic conditions for circulating blood monocytes entering tissues at the site of infection via extravasation.
Following incubation of the cells under various treatment regimens, the tissue culture supernatants were centrifuged at 1000×g for 5 min, then at 10,000×g for 2 min to obtain cell-free samples. Supernatants were aliquoted and then stored at −20° C. prior to assay for various chemokines by capture ELISA (eBioscience and BioSource International Inc., CA, USA respectively)

CCL5 [1] = assay: CCL5 production by peptide alone and in presence of LPS, bovine cells (Table 21); format: cell-based; settings: peptide 32 μg/ml
Protocol: (§1) A subset of peptides was tested for stimulation of the chemokine CCL5 (Table 21).

CCL5 [2] = assay: CCL5 production by peptide alone and in presence of Con A, canine cells (Table 21); format: cell-based; settings: peptide 32 μg/ml
Protocol: as §1

monocytes [3] = assay: Cytokine production in unstimulated monocytes, bovine (Table 22); format: cell-based; settings: background subtracted
Protocol: (§2) A subset of peptides was tested for stimulation of cytokine production in monocytes (Table 22). For the tested cytokines, the peptides tended to show anti-inflammatory activity rather than […] activity.

monocytes [4] = assay: Cytokine production in unstimulated monocytes, canine (Table 22); format: cell-based; settings: background subtracted
Protocol: as §2

LPS stimulated monocytes = assay: Anti-inflammatory activity in LPS stimulated monocytes, bovine (Table 23); format: cell-based; settings: 32 μg/ml peptide, negative = increase
[5] = test system: ConA stimulated monocytes; assay: Anti-inflammatory activity in ConA stimulated monocytes, canine (Table 23); format: cell-based; settings: 32 μg/ml peptide, negative = increase
T-lymphocytes [6] = assay: Cytokine production in T-lymphocytes, bovine (Table 24); format: cell-based; settings: no additional stimulant, background (NONE) subtracted
T-lymphocytes [7] = assay: Cytokine production in T-lymphocytes, canine (Table 24); format: cell-based; settings: no additional stimulant, background (NONE) subtracted
T-lymphocytes [8] = assay: Anti-inflammatory activity towards stimulated T-lymphocytes, bovine (Table 25); format: cell-based; settings: Bovine T-cells, 32 μg/ml of peptide
T-lymphocytes [9] = assay: Anti-inflammatory activity towards stimulated T-lymphocytes, canine (Table 25); format: cell-based; settings: Canine T-cells, 32 μg/ml of peptide
PBMCs = assay: Cytotoxicity towards PBMCs, lactate dehydrogenase (LDH) release assay (Tables 6, 7); settings: compared with 1018

QLARLARVVWGL-NH2 [Peptide 3010, QLARLARVVWGL]
% Residual MRSA biofilm growth compared to untreated control (S. aureus (MRSA SAP0017)): 102% | MCP1 production in PBMC (MCP-1; SPOT synthesized peptide alone, ~25 μM, PBMCs from 3 human donors, Table 6): 7767 pg/mL | MCP1 induction from PBMCs compared to 1018 (in words) (MCP-1; peptide >95% purity): stronger MCP1 inducing abilities than 1018 | Concentration of CCL5 in the absence of stimulation by LPS or ConA (CCL5 [1]; Bovine Monocyte): 647 | Concentration of CCL5 in the absence of stimulation by LPS or ConA (CCL5 [1]; Bovine T-cells): 150 | % CCL5 production relative to that of LPS/ConA (CCL5 [1]; Bovine/LPS Monocyte): 96% | % CCL5 production relative to that of LPS/ConA (CCL5 [1]; Bovine/LPS T-cells): 92% | Concentration of CCL5 in the absence of stimulation by LPS or ConA (CCL5 [2]; Canine Monocyte): 142 | Concentration of CCL5 in the absence of stimulation by LPS or ConA (CCL5 [2]; Canine T-cells): 354 | % CCL5 production relative to that of LPS/ConA (CCL5 [2]; Canine/ConA Monocyte): 138% | % CCL5 production relative to that of LPS/ConA (CCL5 [2]; Canine/ConA T-cells): 81% | Concentration of Monocyte cytokine IFNγ in absence of additional stimulant (monocytes [3]): -43 pg/mL | Concentration of Monocyte cytokine IL-2 in absence of additional stimulant (monocytes [3]): 87 pg/mL | Concentration of Monocyte cytokine IL-4 in absence of additional stimulant (monocytes [3]): -152 pg/mL | Concentration of Monocyte cytokine IL-6 in absence of additional stimulant (monocytes [3]): 58 pg/mL | Concentration of Monocyte cytokine IL-13 in absence of additional stimulant (monocytes [3]): 19 pg/mL | Concentration of Monocyte cytokine TNFα in absence of additional stimulant (monocytes [3]): -199 pg/mL | Concentration of Monocyte cytokine IFNγ in absence of additional stimulant (monocytes [4]): -263 pg/mL | Concentration of Monocyte cytokine IL-2 in absence of additional stimulant (monocytes [4]): -90 pg/mL | Concentration of Monocyte cytokine IL-4 in absence of additional stimulant (monocytes [4]): -1 pg/mL | Concentration of Monocyte cytokine IL-6 in absence of additional stimulant (monocytes [4]): -125 pg/mL | Concentration of Monocyte cytokine IL-13 in absence of additional stimulant (monocytes [4]): 166 pg/mL | Concentration of Monocyte cytokine TNFα in absence of additional stimulant (monocytes [4]): -114 pg/mL | % Monocyte cytokine decrease in presence of LPS/ConA, IFNγ (LPS stimulated monocytes): 88.6% | % Monocyte cytokine decrease in presence of LPS/ConA, IL-2 (LPS stimulated monocytes): 87.4% | % Monocyte cytokine decrease in presence of LPS/ConA, IL-4 (LPS stimulated monocytes): −12.2% | % Monocyte cytokine decrease in presence of LPS/ConA, IL-6 (LPS stimulated monocytes): 23.6% | % Monocyte cytokine decrease in presence of LPS/ConA, IL-13 (LPS stimulated monocytes): 84.8% | % Monocyte cytokine decrease in presence of LPS/ConA, TNFα (LPS stimulated monocytes): 60.1% | % Monocyte cytokine decrease in presence of LPS/ConA, IFNγ [5]: 18.4% | % Monocyte cytokine decrease in presence of LPS/ConA, IL-2 [5]: 40.0% | % Monocyte cytokine decrease in presence of LPS/ConA, IL-4 [5]: 47.5% | % Monocyte cytokine decrease in presence of LPS/ConA, IL-6 [5]: 30.9% | % Monocyte cytokine decrease in presence of LPS/ConA, IL-13 [5]: 32.6% | % Monocyte cytokine decrease in presence of LPS/ConA, TNFα [5]: 25.6% | Concentration of T-cell cytokines in the absence of additional stimulant: IFNγ (T-lymphocytes [6]): -113 pg/mL | Concentration of T-cell cytokines in the absence of additional stimulant: IL-2 (T-lymphocytes [6]): 28 pg/mL | Concentration of T-cell cytokines in the absence of additional stimulant: IL-4 (T-lymphocytes [6]): -32 pg/mL | Concentration of T-cell cytokines in the absence of additional stimulant: IL-6 (T-lymphocytes [6]): -7 pg/mL | Concentration of T-cell cytokines in the absence of additional stimulant: IL-13 (T-lymphocytes [6]): 12 pg/mL | Concentration of T-cell cytokines in the absence of additional stimulant: TNFα (T-lymphocytes [6]): 203 pg/mL | Concentration of T-cell cytokines in the absence of additional stimulant: IFNγ (T-lymphocytes [7]): 111 pg/mL | Concentration of T-cell cytokines in the absence of additional stimulant: IL-2 (T-lymphocytes [7]): 1 pg/mL | Concentration of T-cell cytokines in the absence of additional stimulant: IL-4 (T-lymphocytes [7]): 13 pg/mL | Concentration of T-cell cytokines in the absence of additional stimulant: IL-6 (T-lymphocytes [7]): 317 pg/mL | Concentration of T-cell cytokines in the absence of additional stimulant: IL-13 (T-lymphocytes [7]): -147 pg/mL | Concentration of T-cell cytokines in the absence of additional stimulant: TNFα (T-lymphocytes [7]): 606 pg/mL | % Cytokine decrease in the presence of LPS/ConA: IFNγ (T-lymphocytes [8]): 67.6% | % Cytokine decrease in the presence of LPS/ConA: IL-2 (T-lymphocytes [8]): 59.5% | % Cytokine decrease in the presence of LPS/ConA: IL-4 (T-lymphocytes [8]): 75.9% | % Cytokine decrease in the presence of LPS/ConA: IL-6 (T-lymphocytes [8]): 3.8% | % Cytokine decrease in the presence of LPS/ConA: IL-13 (T-lymphocytes [8]): 93.1% | % Cytokine decrease in the presence of LPS/ConA: TNFα (T-lymphocytes [8]): 54.6% | % Cytokine decrease in the presence of LPS/ConA: IFNγ (T-lymphocytes [9]): 43.2% | % Cytokine decrease in the presence of LPS/ConA: IL-2 (T-lymphocytes [9]): 91.6% | % Cytokine decrease in the presence of LPS/ConA: IL-4 (T-lymphocytes [9]): 65.8% | % Cytokine decrease in the presence of LPS/ConA: IL-6 (T-lymphocytes [9]): 44.1% | % Cytokine decrease in the presence of LPS/ConA: IL-13 (T-lymphocytes [9]): 36.0% | % Cytokine decrease in the presence of LPS/ConA: TNFα (T-lymphocytes [9]): 32.2% | toxicity: cytoxicity towards PBMCs and/or hemolysis towards RBCs (in words) (PBMCs): low toxicity
